Data as given in PubChem BioAssay AID485294 (National Center for Advancing Translational Sciences (NCATS), 2010).
The campaign covered roughly 370,000 compounds. About 150 (0.041%) were called active. Inconclusive means that the source gave no clear call. Such entries were picked first, then a sample of the others. Calls follow the shape of the dose curve; as a rule, active = well fitted inhibition curve with a large enough effect; inconclusive = small, poorly fitted or top-dose-only effect; inactive = flat fitted curve, though single readings scatter. Potencies of inconclusive entries are left out as doubtful fits.

What follows are compounds tested against Beta-lactamase (Escherichia coli (strain K12)) (UniProt P00811) (assay: qHTS Inhibitors of AmpC Beta-Lactamase (assay with detergent)). Conditions: AmpC hydrolysis of nitrocefin, absorbance 480 nm, 0.01% Triton; activity change, negative = inhibition: at 114 µM (top of the series).
UniProt P00811, sequence (P00811 whole entry, looked up): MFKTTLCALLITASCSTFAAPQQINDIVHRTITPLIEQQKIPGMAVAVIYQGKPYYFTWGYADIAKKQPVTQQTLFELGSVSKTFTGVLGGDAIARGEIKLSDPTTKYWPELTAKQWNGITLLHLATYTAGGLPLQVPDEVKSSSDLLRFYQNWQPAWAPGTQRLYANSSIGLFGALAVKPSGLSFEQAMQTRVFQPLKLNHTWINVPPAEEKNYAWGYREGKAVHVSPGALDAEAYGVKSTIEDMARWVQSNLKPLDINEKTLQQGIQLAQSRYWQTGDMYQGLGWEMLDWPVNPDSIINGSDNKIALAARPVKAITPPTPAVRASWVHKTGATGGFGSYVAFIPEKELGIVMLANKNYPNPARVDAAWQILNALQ
Procedure, shortened: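 20 mM phosphate pH 7.0 + 0.01% (detergent screen) or 0.0001% Triton X-100; 5.3 nM AmpC reagent; cpd preinc 15 min RT; nitrocefin (800 uM stock) to start; A480 q20 s × 4 min; Activity was normalised to no-enzyme and no-compound control wells.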
Also: nearly all actives have a fitted effect of over 25% in size.
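For activity change, negative = inhibition in this document: 0% = no-compound wells and -100% = no-enzyme wells.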
Potency is read from the fitted curve at half-maximal effect; tags tell the direction and shape of the fitted curve.

Structure (SMILES)	Potency	activity change, negative = inhibition
Cn1ccnc1SCc1cn2ccccc2n1	inconclusive [inhibitor, full curve, poor fit]	
CCOC(=O)C1CCCN(C2CC(=O)N(c3cccc(C)c3)C2=O)C1 (stereo not given)	inconclusive [inhibitor, full curve, poor fit]	
O=C(Nc1nc(-c2ccc3c(c2)OCCO3)cs1)c1ccc(S(=O)(=O)N2CCCCC2)cc1	inconclusive [inhibitor, full curve, poor fit]	
COc1cccc(C(=O)NN/C(C)=C/C(=O)C(F)(F)C(F)(F)C(F)(F)F)c1	inconclusive [inhibitor, partial curve, poor fit]	
Cc1ccc(S(=O)(=O)N2CCOCC2)cc1C(=O)OCC(=O)NCc1ccccc1	inconclusive [inhibitor, full curve]	
Cc1cc(F)ccc1S(=O)(=O)N1CCC2(CC1)OCCN2S(=O)(=O)c1cccs1	inconclusive [inhibitor, partial curve]	
Cc1ccc(C(=O)c2cc([N+](=O)[O-])ccc2N2CCOCC2)cc1C		inactive: -1.99%
COc1ccc(S(=O)(=O)NCC(c2ccco2)S(=O)(=O)c2cccs2)cc1OC (stereo not given)		inactive: 1.89%
CCOc1ccc(NC(=O)c2cccc(OC(=S)N3CCOCC3)c2)cc1		inactive: -4.42%
COc1ccccc1NC(=O)C(=O)NCC(c1ccco1)N1CCc2ccccc21 (stereo not given)	inconclusive [inhibitor, full curve]	
O=[N+]([O-])c1ccc(Cl)c(/C=N/NC(=S)Nc2ccccc2)c1	inconclusive [inhibitor, full curve, poor fit]	
O=C(CN1C(=O)NC2(CCCC2)C1=O)Nc1cccc(Cl)c1Cl	inconclusive [inhibitor, full curve, poor fit]	
COc1cc(C(=O)N2CCC(n3c(C)nc4cc(F)ccc43)CC2)cc(OC)c1OC	inconclusive [inhibitor, full curve]	
COc1ccc(NC(=O)Cn2nc(C)c3c(C)n(-c4ccccc4)nc3c2=O)cc1OC		inactive: 12.4%
O=S(=O)(N/N=C/c1ccc(N2CCOCC2)cc1)c1ccccc1		inactive: 6.74%
O=[N+]([O-])c1cccc(-n2cc3ccc([N+](=O)[O-])cc3n2)c1	inconclusive [inhibitor, single point]	
CC(OC(=O)c1cccc(-n2cnnn2)c1)C(=O)N(C)c1ccccc1 (stereo not given)	inconclusive [inhibitor, partial curve, poor fit]	
CC(C)c1c(CN(C)C(C)Cc2ccccc2)n(C)n(-c2ccccc2)c1=O (stereo not given)	inconclusive [inhibitor, partial curve]	
Cc1ccc(Oc2cc(-n3nc(C)cc3C)ncn2)cc1	inconclusive [inhibitor, partial curve]	
O=C1CC(N2CCSCC2)C(=O)N1c1ccc(Br)cc1 (stereo not given)		inactive: -5.31%
Nc1nc(-c2ccco2)nn1C(=O)c1ccc(Cl)cc1	inconclusive [inhibitor, partial curve, poor fit]	
Cc1ccc2sc(N(CCCN(C)C)C(=O)c3ccc(S(=O)(=O)N4CCc5ccccc5C4)cc3)nc2c1C	inconclusive [inhibitor, partial curve]	
Cc1nnc(SCC(=O)NNC(=O)c2ccccc2)n1-c1ccccc1		inactive: -1.71%
O=[N+]([O-])c1ccc(CN2CCN(c3ccccc3Cl)CC2)o1	inconclusive [inhibitor, full curve]	

Structure (SMILES)	Potency	activity change, negative = inhibition
OC1CCCCC1Sc1nc2ccccc2s1 (stereo not given)	inconclusive [inhibitor, partial curve, poor fit]	
CN(C)C1=NCCN1CCc1ccccc1	inconclusive [inhibitor, single point]	
CSc1nc(-c2ccco2)nn1C(=O)c1ccc(Cl)cc1	inconclusive [inhibitor, partial curve, poor fit]	
CCOc1ccc(CO/N=C/c2c(C)[nH]c(=O)[nH]c2=O)cc1	inconclusive [inhibitor, single point]	
COc1ccc(C2Nc3ccccc3C(=O)N2c2ccc(C)cc2)cc1Cn1nc(C)c([N+](=O)[O-])c1C (stereo not given)		inactive: 2.52%
COc1cc(C(=O)OC(C)C(=O)Nc2ccc3c(c2)OCO3)ccc1OCc1c(C)noc1C (stereo not given)	inconclusive [inhibitor, partial curve]	
Cc1ccc(/C=C/S(=O)(=O)Nc2ccc(C)cc2)cc1	inconclusive [inhibitor, full curve, poor fit]	
CCCCC(=O)Nc1cc(-c2cn3cccnc3n2)ccc1C		inactive: 1.16%
CCOc1ccc(-c2c(C)nn3c(C)c(C(=O)NC(C)c4ccccc4)cnc23)cc1OCC (stereo not given)		inactive: 19.1%
O=C1NCN(c2ccccc2)C12CCN(c1nnnn1-c1ccccc1)CC2	inconclusive [inhibitor, partial curve]	
CNc1ccccc1-n1ccc(-c2ccccc2)n1	inconclusive [inhibitor, single point]	
Cc1cccc(NCC(O)Cn2cnc3c2c(=O)n(C)c(=O)n3C)c1 (stereo not given)	inconclusive [inhibitor, full curve, poor fit]	
Cc1nc(Sc2nnnn2C)c2c3c(sc2n1)CCC3	inconclusive [inhibitor, full curve]	
COc1ccc(NC(=O)CCc2nnc3ccc(N4CCN(c5cccc(OC)c5)CC4)nn23)cc1		inactive: -5.29%
CCCCn1c(N)c(N(CCOC)C(=O)C2CCN(S(=O)(=O)c3ccc(C)cc3)CC2)c(=O)[nH]c1=O	inconclusive [inhibitor, full curve, poor fit]	
CCOC(=O)C(=O)Nc1ccccc1C(=O)NCc1ccccc1		inactive: 2.43%
CC1(C)OC(c2ccccc2)=C/C(=C/C=Nc2ccccc2)O1	inconclusive [inhibitor, single point]	
CCOC(=O)c1cnn(-c2cccc(Cl)c2)c1C1CCN(C(=O)OC(C)(C)C)CC1		inactive: 6.89%
CCOc1ccc(C2Nc3ccccc3NC3=C2C(=O)CC(C)(C)C3)cc1OC (stereo not given)	inconclusive [inhibitor, partial curve, poor fit]	
COc1ccc(N2C(=O)C3CCCCC3C2=O)cc1NC(=O)c1ccccc1 (stereo not given)		inactive: -6.02%
CSc1nc2sc3c(c2c(=O)n1-c1ccc(C)cc1)CCCC3		inactive: -2.01%
CC1CCN(C(=O)c2ccc(CSc3nc4ccncc4n3Cc3ccc(F)cc3)cc2)CC1	inconclusive [inhibitor, partial curve]	
O=C(NC1CCCC1)c1cccc(Oc2ccccc2)c1	inconclusive [inhibitor, partial curve]	
Cc1nn(CC(=O)c2ccc(Cl)s2)c(C)c1[N+](=O)[O-]	inconclusive [inhibitor, single point]	

Structure (SMILES)	Potency	activity change, negative = inhibition
CC1(C)NC(=O)N(CC(=O)N2CCN(S(=O)(=O)c3ccccc3C(F)(F)F)CC2)C1=O	inconclusive [inhibitor, full curve, poor fit]	
O=C(N/N=C/c1ccccc1F)c1ccc(COc2ccccc2Cl)o1	inconclusive [inhibitor, single point]	
Clc1ccc2c(NCc3ccccc3)ccnc2c1		inactive: -9.98%
COC1(C(F)(F)F)NC(=O)N(c2ccc(F)cc2)C1=O (stereo not given)		inactive: 0.704%
CN(CC(=O)Nc1cccc(F)c1)C(=O)CN1C(=O)NC2(CCCC2)C1=O	inconclusive [inhibitor, partial curve, poor fit]	
COc1cccc(CCNC(=O)c2cnc3sc(N4CCCC4)nn3c2=O)c1		inactive: 0.14%
CCNC(=O)CC1SC(=Nc2cccc(Cl)c2C)N(C)C1=O (stereo not given)	inconclusive [inhibitor, partial curve, poor fit]	
O=C(CCn1ccnc1)Nc1ccc2ccccc2c1	inconclusive [inhibitor, partial curve]	
Cc1cccc(-n2c3nc(=O)n(C)c(=O)c-3cc3c(C)nn(-c4ccccc4)c32)c1C		inactive: 4.63%
Fc1ccccc1CNC1CN2CCC1CC2 (stereo not given)		inactive: 1.44%
Cc1cn2c(=O)cc(COC(=O)COc3ccc(F)cc3)nc2s1		inactive: -0.827%
CCS(=O)(=O)c1ccc(-c2cccc(NC(=O)c3ccco3)c2)nn1	inconclusive [inhibitor, partial curve]	
CCC(=O)c1ccc(OCC(O)CN(CCc2ccccc2)Cc2ccccc2)cc1 (stereo not given)	inconclusive [inhibitor, full curve, poor fit]	
Cc1ccc(C(C)C)c(OCC(=O)NNC2=CC(=O)CC(C)(C)C2)c1		inactive: -6.17%
COc1cccc(OC)c1C(=O)Nc1c(C(=O)N2CCN(c3ccccn3)CC2)oc2ccccc12	inconclusive [inhibitor, full curve, poor fit]	
COc1ccc(NC(=O)C/C(C)=N/NC(=O)c2ccco2)c([N+](=O)[O-])c1		inactive: -0.796%
COc1cc(C(=O)Nc2nc3ccc(S(=O)(=O)N4CCOCC4)cc3s2)cc(OC)c1OC	inconclusive [inhibitor, full curve, poor fit]	
O=C(CNC(=O)Cn1ccc2ccccc2c1=O)NCCCN1CCCCCC1		inactive: -14.3%
O=C(CSc1nc2c(c(C(F)(F)F)n1)CCc1ccccc1-2)NCc1ccco1		inactive: -3.29%
CCOc1ccccc1NC(=O)/C(C#N)=C/c1cccnc1	inconclusive [inhibitor, partial curve, poor fit]	
Cc1ccc(Nc2c3c(nc4ccccc24)CCC3)cc1F		inactive: 8.28%
COc1ccc(CC(=O)N2CCN(S(=O)(=O)c3cc(Cl)ccc3Cl)CC2)cc1	inconclusive [inhibitor, partial curve, poor fit]	
